The record followed here is ChEMBL document CHEMBL1201862, “PubChem BioAssay data set” (2004).

By GI50 is commonly meant the concentration at which growth is held to half of that of the control.

Molecules are shown by their SMILES.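 Where inhibition never reached the appropriate level, the endpoint shown equals the highest concentration tested. Otherwise, values were interpolated linearly from a five-concentration, 48-hour dose response in 96-well plates. GI50: concentration for 50% inhibition of growth.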 The source made the active and inactive calls. Rule as the data show it: active = GI50 up to about 1.1 µM and inactive = higher. Where only a bound is given, the exact number is not on record here.

The assay concerns NCI-H322M. Kind of assay: DTP human tumour cell line panel, 48 h.
For `CSS(C)(=O)=O`, the GI50 was inactive: > 100 µM.

Take `Cn1c(=O)c2nc(CCCCC(=O)O)[nH]c2n(C)c1=O`: the GI50 was inactive: > 100 µM.

With `Cc1c(/N=C/C=C/c2ccccc2)c(=O)n(-c2ccccc2)n1C`, the GI50 is inactive: > 100 µM.

For `O=C1N[C@@H](c2c[nH]c3ccc(Br)cc23)C(=O)N[C@H]1c1c[nH]c2ccc(Br)cc12`, the GI50 was inactive: 11.7 µM.

For the compound `O=[N+]([O-])c1cccc(C2SCc3nc4ccccc4n32)c1` (configuration not stated), the GI50 was inactive: > 100 µM.

Turning to `O=C(NCCNCCNCCNC(=O)c1cc(-c2ccccc2)nc2ccccc12)c1cc(-c2ccccc2)nc2ccccc12`, the GI50 was inactive: 4.46 µM.

In the case of `CN(C)c1cccc2c(S(=O)(=O)NCCCNCCN)cccc12`, the GI50 was inactive: 89.3 µM.

For `CC(SC(=S)N(C)C)C(=O)Nc1nnc(-c2ccc(Cl)cc2)o1` (configuration not stated), the GI50 was inactive: 40.8 µM.

In the case of `C=C1CCC2CC1C(C(=O)c1c[nH]c3ccccc13)=NC2(C)C` (configuration not stated), the GI50 is inactive: > 100 µM.

For `CCC1(COC(NC(=O)c2ccccc2)(C(F)(F)F)C(F)(F)F)COC1`, the GI50 was inactive: > 100 µM.

Consider `CC1=NN(C(=O)CSc2nnc(SCC(=O)N3N=C(C)CC3(O)c3ccccc3)s2)C(O)(c2ccccc2)C1` (configuration not stated), for which the GI50 was inactive: 21.3 µM.

In the case of `CO[C@]12CC(=O)C3(C(C[C@H]4CC5CC[C@H]6C[C@@H](OC(C)=O)CC[C@]6(OC(C)=O)C5C[C@@]43C)C1)C1C[C@H]3[C@@H]4CC[C@H]5C[C@@H](OC(C)=O)CC[C@]5(OC(C)=O)[C@H]4CC[C@]3(C)C12` (some centres not stated), the GI50 was inactive: > 100 µM.

As to `O=[N+]([O-])c1c(F)c(F)c2c(c1F)Nc1ccccc1S2`, the GI50 was inactive: 4.09 µM.

As to `C=CCn1c2ccccc2c2c(C)c3cnccc3c(C)c21`, the GI50 was inactive: 10.6 µM.

As to `COC(=O)CCCC(=O)/C(=N\Nc1ccc(Cl)cc1)Nc1c(Cl)cccc1Cl`, the GI50 is inactive: 59.6 µM.

For the compound `CCOC(=O)c1c(C)n(Cc2ccccc2)c2c1cc(O)c1[nH]c3c(c12)CCCC3`, the GI50 is inactive: 15 µM.

For the compound `CC(Oc1ccc2c(-c3ccc(Cl)cc3)cc(=O)oc2c1)C(=O)O` (configuration not stated), the GI50 was inactive: > 100 µM.

In the case of `CCOC(=O)C1=C(NC(C)(C)C)OCC1=O`, the GI50 was inactive: > 100 µM.

In the case of `C=C(OC1C(C)=C2C(C1OC(=O)CCCCCCC)C(C)(OC(C)=O)CC(OC(=O)CCC)C1(O)C2OC(=O)C1(C)O)/C(C)=C/C` (configuration not stated), the GI50 was active: 0.0125 µM.

With `CC1=C(C)SC(=C2Sc3c(n(C)c(=O)n(C)c3=O)S2)S1`, the GI50 is inactive: > 100 µM.

Turning to `COc1ccc2nc3cc(Cl)ccc3c(NCCCN(CCCl)CCCl)c2c1`, the GI50 was active: 0.0568 µM.

In the case of `O=C(Nc1ccccc1-c1nn(CO)c(=S)n(CO)c1=O)C(F)(F)F`, the GI50 was inactive: > 100 µM.

For `Cc1cc(NC(=S)Nc2ccccc2)c(NC(=S)Nc2ccccc2)cc1C`, the GI50 is inactive: 34.2 µM.

As for `O=C1CCCCCC1CC(Sc1ccccc1)Sc1ccccc1` (configuration not stated), the GI50 is inactive: > 100 µM.

In the case of `COc1ccc(O[C@H](CO)C[C@@H]2COC(C)(C)O2)cc1`, the GI50 was inactive: > 100 µM.

`COC(=O)C12CC(C3CC31)C1CC12` (configuration not stated): the GI50 was inactive: > 100 µM.

For `CCn1c(-c2cc(OC)cc(OC)c2)nc2c1C(=O)c1ccccc1C2=O`, the GI50 was inactive: > 100 µM.

For the compound `CCNC(=S)/N=c1\sc(NCC)nc2sc3c(c12)CCN(N1CCc2c(sc4nc(NCC)s/c(=N\C(=S)NCC)c24)C1)C3`, the GI50 is inactive: 33.3 µM.

With `CCN(N=O)C1C2(CCCC2)NC(=O)C12CCCC2` (configuration not stated), the GI50 is inactive: > 100 µM.

Regarding `C#CCN(N=O)C(=O)NCCCC(NC(C)=O)C(=O)NCc1ccccc1` (configuration not stated), the GI50 was inactive: > 100 µM.

Consider `O=C1CCCC/C(=C/c2ccccc2)N1`, for which the GI50 was inactive: > 100 µM.

As to `CCOC(=O)C(NC(=O)CC)(Nc1ccc(F)c(Cl)c1)C(F)(F)F` (configuration not stated), the GI50 is inactive: > 100 µM.

Turning to `CSC(=N)N1N=C2c3ccccc3CC[C@@H]2[C@@H]1c1ccccc1`, the GI50 is inactive: 15.7 µM.

In the case of `O=C(O)c1c2c(cc3c1CC1(Cc4ccccc4C1=O)C3)CCC2` (configuration not stated), the GI50 was inactive: 5.78 µM.

As for `CC(C)C1OC(N)=C(C#N)C1(C#N)C#N` (configuration not stated), the GI50 was inactive: > 100 µM.

For the compound `CC(=O)Oc1cc2c[n+](C)c3c4cc(OC(C)=O)c(OC(C)=O)cc4ccc3c2cc1OC(C)=O`, the GI50 was inactive: 3.63 µM.

On to `O=C1O[C@H](COC(=O)c2ccccc2)[C@@H](OC(=O)c2ccccc2)C=C1OC(=O)c1ccccc1`, for which the GI50 was inactive: 33.7 µM.

On to `Nc1ncnc2c1ncn2C1OC(CSC(F)F)C(O)C1O` (configuration not stated), for which the GI50 was inactive: > 100 µM.

As to `O=C1/C(=C/c2ccccc2S)N=C(c2ccccc2)N1c1nc2ccc(Sc3ccccc3)cc2[nH]1`, the GI50 was inactive: 48.4 µM.

Turning to `O=P1(c2ccccc2)c2ccccc2CCc2ccccc21`, the GI50 was inactive: 53.2 µM.

On to `COC(=O)c1nsc(OC)c1Cl`, for which the GI50 was inactive: > 100 µM.

In the case of `C=CCN(c1cc(O)c2c(c(C)cn2S(=O)(=O)c2ccccc2)c1[N+](=O)[O-])S(C)(=O)=O`, the GI50 is inactive: > 100 µM.

On to `Clc1ccc(C2SCc3nc4ccccc4n32)c(Cl)c1` (configuration not stated), for which the GI50 is inactive: 12.9 µM.

`COC1CC(C)([N+](=O)[O-])C(O)C(C)O1` (configuration not stated): the GI50 is inactive: > 100 µM.

Regarding `CCOC(=O)c1nnn(CCCCO)c1C(=O)OCC`, the GI50 is inactive: > 100 µM.

As for `CC1(C)C(=O)N(O)C(C)(C)N1O`, the GI50 is inactive: > 10 µM.

In the case of `NC(=O)CN1CC(C2=C(O)CN(CC(N)=O)C2=O)=CC1=O`, the GI50 is inactive: > 100 µM.

With `O=S(=O)(c1ccccc1)n1c2cc3cccnc3nc2c2cccnc21`, the GI50 is inactive: > 100 µM.

In the case of `CN(C(=O)[C@H](NC(=O)OCc1ccccc1)c1ccccc1)C1CCCCC1N1CCCC1` (some centres not stated), the GI50 was inactive: > 100 µM.

As for `CC(C)N(C(=O)C12C3C4C1C1C2C3C41C(=O)C(C)(C)C)C(C)C` (configuration not stated), the GI50 is inactive: > 100 µM.

Take `O=[N+]([O-])C1=Cc2c(O)ccc(O)c2C2c3ccccc3NC12` (configuration not stated): the GI50 is inactive: 15.1 µM.

With `Cc1cn(S(=O)(=O)c2ccccc2)c2c(OCc3ccccc3)cc(NS(C)(=O)=O)cc12`, the GI50 was inactive: 26.5 µM.

Take `CN(C)c1ccc(/C=C(\NC(=O)c2ccccc2)C(=O)NC(CC(=O)O)C(=O)O)cc1` (configuration not stated): the GI50 is inactive: > 100 µM.

For `CC(=O)Nc1c(C)cc2c(nc3n2CCC3OC(C)=O)c1[N+](=O)[O-]` (configuration not stated), the GI50 was inactive: > 100 µM.

Consider `O=[N+]([O-])c1ccc2c(c1)N=C1OC(c3c[nH]c4ccc(COc5ccccc5)cc34)C(O)=C1N2` (configuration not stated), for which the GI50 is inactive: 96.4 µM.

For `O=C(O)CCCSC(=O)Nc1ccc(/N=N/c2ccccc2)cc1`, the GI50 was inactive: > 100 µM.

Regarding `O=C1/C(=C\c2cccc(Oc3ccccc3)c2)SC(c2ccccc2)N1c1cc(Cl)ccc1Cl` (configuration not stated), the GI50 is inactive: 93.5 µM.

On to `CC(C)N1CN(C(C(=O)N[C@@H]2C(=O)N3C2SC(C)(C)C3C(=O)O)c2ccccc2)CSC1=S` (some centres not stated), for which the GI50 is inactive: > 100 µM.

For the compound `CN/N=C(/C=C/c1ccccc1)C(C)C`, the GI50 is inactive: > 100 µM.

With `C=CCCCCNC(=O)C[C@@H]1C2=C(CC[C@H]1O[Si](C)(C)C(C)(C)C)N1C(=O)CCC/C=C\C1C2` (some centres not stated), the GI50 is inactive: 16.2 µM.

As to `O=C1CCCC2=C(N1)C(=O)C=CC2=O`, the GI50 is inactive: > 64.1 µM.

Regarding `Cc1ccc(S(=O)(=O)NC(=O)NNc2ccc(F)cc2)cc1`, the GI50 is inactive: > 100 µM.

Consider `COC(=O)c1ccc(OCc2ccc3nc(-c4ccccc4)c(Cl)nc3c2)cc1`, for which the GI50 was inactive: > 100 µM.

For the compound `COc1ccc(N2C(=O)C3c4[nH]c5ccccc5c4C4CCCCCCCCCCC4C3C2=O)cc1` (configuration not stated), the GI50 was inactive: 10.3 µM.

For `C#CCn1c(=O)ccn(/C(=C/C(=O)OCC)C(=O)OCC)c1=O`, the GI50 is inactive: 36.6 µM.

Take `COc1cccc(-c2c(-c3ccccc3)[nH]c(C)c2C(=O)ONC(=O)c2ccccc2)c1`: the GI50 is inactive: 11.2 µM.

As for `CCOC(=O)C1=C(C)N2CCOC2(C)C(C(=O)OC)C1c1cccc(Cl)c1` (configuration not stated), the GI50 is inactive: > 100 µM.

`COc1ccc(/C=C2/C(=O)N(/C=C3\C(=O)Oc4ccccc4C3=O)/C(=N/C(C)=O)N2C)cc1OC`: the GI50 is inactive: > 100 µM.

Take `CC(=O)N1C2=CCCC2(C)c2ccccc21` (configuration not stated): the GI50 is inactive: > 100 µM.

Regarding `COc1ccc(C2=NN(C(=O)c3ccccc3)C(O)(c3cc(F)c(Cl)cc3Cl)C2)cc1OC` (configuration not stated), the GI50 is inactive: 23.6 µM.

As to `Cn1cccc1-c1ccc(-c2ccc(CO)[se]2)[se]1`, the GI50 was inactive: 25.9 µM.

With `COc1c(I)c(OC)c2c(c1I)O[C@@H]1OCC[C@H]21`, the GI50 is inactive: 74.6 µM.

`O=C1NC(N2CCCC(CO)C2)=N/C1=C\c1ccccc1` (configuration not stated): the GI50 is inactive: > 100 µM.

Consider `CCCCCCCCC/C=C1/CC(CO)(COC(=O)C2CCCCC2)OC1=O` (configuration not stated), for which the GI50 is inactive: > 100 µM.

Take `COC(=O)C1=Cc2c(OC)cc(OC)c(OC)c2[C@H](c2cc(OC)c(OC)cc2OC)C1C(=O)OC` (some centres not stated): the GI50 was inactive: > 100 µM.

Regarding `CC(C)(C)C1CCC(=O)C(C(O)CC2CC(=O)N(c3ccccc3)C(=O)C2)C1` (configuration not stated), the GI50 is inactive: > 100 µM.

In the case of `O=c1c2cc(Cl)ccc2[nH]c2cc(O)cc(O)c12`, the GI50 was inactive: > 10 µM.

As for `CC(C)NC(=O)OCc1c(COC(=O)NC(C)C)c(-c2ccc(Cl)c(Cl)c2)n2c1CCC2`, the GI50 is inactive: 51.5 µM.

For the compound `Cn1c(=O)nc2n(-c3cccc(F)c3)c3ccccc3nc-2c1=O`, the GI50 was inactive: 28.3 µM.

For `CC1=NN(C(=O)c2ccccc2O)C(=O)/C1=C/c1ccco1`, the GI50 is inactive: 7.66 µM.

Turning to `CC[C@@]1(O)C(=O)OCc2c1cc1n(c2=O)Cc2cc3c(OC)cccc3nc2-1`, the GI50 is active: 0.794 µM.

As for `COc1c(OC2OC(CO)C(O)C(O)C2O)cc2c(c1OC)-c1ccc(OC)c(=O)cc1[C@@H](NC(C)=O)CC2` (some centres not stated), the GI50 was inactive: > 100 µM.
